Laboratory results from publication PMC12136788.
Some of the results follow.

T1: UNK ZnF1-3 (human, UniProt Q9C0B0 31-174)
T1 sequence: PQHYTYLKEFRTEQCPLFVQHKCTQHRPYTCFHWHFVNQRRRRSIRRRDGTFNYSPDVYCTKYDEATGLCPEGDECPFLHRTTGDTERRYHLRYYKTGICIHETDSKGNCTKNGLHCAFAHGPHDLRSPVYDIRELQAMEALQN

B1: chr12:25362807:25362808:-_ENSG00000133703_ENST00000311936|hu_hu|motif|central (ssRNA)
RNA: GGGAGUUCUACAGUCCGACGAUCUUUCUUCUUUUUACCAUCUUUGCUCAUCUUUUCUUUAUGUUUUCGAAUUUCUCGAACGGAUGUAUAGAAGGCAUCAUCAACACCCUGUCUUGUCUUUGCUGAUGUUUCAAUAAAAGGAAUCAACAGAGGAUUGAGCAUCA
B2: chr5:71493418:71493419:+_ENSG00000131711_ENST00000296755|hu_hu|FALSE|FALSE (ssRNA)
RNA: GGGAGUUCUACAGUCCGACGAUCUUCUUCAAAAGGACUUUCGGCACCUCUGCCAGAAGCCUUGUCAUCAGCACUUAGAAAACUUUCAUAAGCAGACUCGGAUCCAAUGAGGGGCGGGCUGCGUAAAGGAGACAAAACUUUUUCCAACAGAGGAUUGAGCAUCA
B3: chr2:166765161:166765162:+_ENSMUSG00000002718_ENSMUST00000002790|mus_mus|FALSE|FALSE (ssRNA)
RNA: GGGAGUUCUACAGUCCGACGAUCAGACAAGCAUAUUGCUUCAAACAUGUAGUGAUUGAAAUGAGGUUUACUGGGAUUCUUACUAACAGCCAGCAGCUUCUGUGUGAGCUGCGUGAUGAGAGUGGGGAUAUAGGGGAUGAUGGCCAACAGAGGAUUGAGCAUCA
B4: chr5:137904717:137904718:-_ENSG00000113013_ENST00000297185|hu_mus|FALSE|FALSE (ssRNA)
RNA: GGGAGUUCUACAGUCCGACGAUCAGAAUAGAGUUUUCCAUGAGCCUCAACCCAAGCAUCACCAUUGGAGGCACGGACAAUUUUAAAAGGAACAUUCUUAGUGUCUUUCUGUACUUCAGGGUCAUCAUAUCGUCGUCCAAUAAGCAACAGAGGAUUGAGCAUCA
B5: chr2:69032557:69032558:-_ENSMUSG00000005233_ENSMUST00000005365|mus_mus|FALSE|FALSE (ssRNA)
RNA: GGGAGUUCUACAGUCCGACGAUCAUUGGCAAGAAAAGCUGAAAAAUUGUUGGUCUUCCUGACUUUCUCCUGAAAUUCUGCUAGGCACUCAAGAUGAGGCGAACUGUCGUACACUUCAUAUUCCUUAGCUUCAUUUAUGCUCAUCAACAGAGGAUUGAGCAUCA
B6: chr5:128440902:128440903:+_ENSG00000066583_ENST00000173527|hu_mus|hu_hu_hu_mus_True|18_18 (ssRNA)
RNA: GGGAGUUCUACAGUCCGACGAUCUUGAACGGUGCUGCCAAGUCCUUUGGGGUAUUGUUCCGUUAUGAUAACUGGAAUCCCUAAGAUCCGAGCUCCUUGCAACAGUCUCUGUCCCACGCUAAUAAUAUCCCCAAAGUAUUUGAUCAACAGAGGAUUGAGCAUCA
B7: chr7:65705844:65705845:+_ENSG00000169902_ENST00000304842|hu_mus|hu_hu_hu_mus_False|8_108 (ssRNA)
RNA: GGGAGUUCUACAGUCCGACGAUCAAAAGGAUCUUUAUUACAUAAAUAAGGUGCCGGCUCCCCAUGUUUAACAAUGACCUCCAGAAGGAAGGCUUGCAUGGCAGAAUCUAGCACUUCAUCUGUGACACCAGCCUCAUCCAAGCGCAACAGAGGAUUGAGCAUCA
B8: 21840765_21841110_688_3pUTR_ENSMUSG00000003410_ENSMUST00000003501|mouse|control|control (ssRNA)
RNA: GGGAGUUCUACAGUCCGACGAUCUUGGUCUGCAGUUUGAGGCCAUUGAGGGUGUUGAUGGCUUUGUCUGCAUCAUUGGGGUCAGAGUAGUUCACAAACCCAUAGCCCAGGCUCUGCCCUGUGAUCUUAUCCCGAACCAACUUGCAACAGAGGAUUGAGCAUCA
B9: chr17:62496016:62496017:-_ENSG00000108654_ENST00000581693|hu_mus|FALSE|FALSE (ssRNA)
RNA: GGGAGUUCUACAGUCCGACGAUCCUGAUAACACACAAUAUAAAGAGCAAUUAUGAAAAACAGACAUUUACAUAUACUUCUAAAGUCUUAUUGAGAAUACCCUGUUGGCAUGGGAUAGCCAAUCAUAGGCGCAGCAGCUGCGGUCAACAGAGGAUUGAGCAUCA
B10: chr15:57879074:57879075:-_ENSMUSG00000022361_ENSMUST00000070143|mus_mus|FALSE|FALSE (ssRNA)
RNA: GGGAGUUCUACAGUCCGACGAUCCCAGCUGUCUGUGUGAAGAAAUCAGCAAAUUGCAGCAUUUGGGAAUUGCUAAUAAAGCUAUAGUUAAAAAAUAAAAAGUUUAUCAAAAUGAAAGCAGCAUGCAUAGUCAAGGCUUUAUCACAACAGAGGAUUGAGCAUCA
B11: 193375006_193376780_2445_CDS_ENSG00000198836_ENST00000392438|human|control|control (ssRNA)
RNA: GGGAGUUCUACAGUCCGACGAUCCUUGAGACGAGCCUGCAGAGCCUCUUCCAUAAAAUAAAUAGCUGCAUCCCAUUGCUGUUUAUCAGAUAUGGAUCGGUCUUCCAAAGCAUUGUGUUGAAUAACCCUCAAGCUGUCCUCCGCCAACAGAGGAUUGAGCAUCA
B12: 95940815_95940935_2955_3pUTR_ENSG00000164938_ENST00000448464|human|control|control (ssRNA)
RNA: GGGAGUUCUACAGUCCGACGAUCGAAGUCAAAACGGAAGGGGCAAUAAGGAGAAAGGGGGAAUCUAACUCUUGUUCUAAAGAGACAUUCUGGCACUUCAUCACAGCCAGUAGAAGAACAAUGUAAAACCUCCAUCUCACUACACAACAGAGGAUUGAGCAUCA
B13: 121471587_121472132_1816_CDS_ENSMUSG00000028127_ENSMUST00000029770|mouse|control|control (ssRNA)
RNA: GGGAGUUCUACAGUCCGACGAUCAACACUGUCCCAGCCGCCUUCUCGCUCAAGGAUGUGACCCAGCUGCACAUUGUCCAAGUACUCCUUCAGCACCUGGUCAGAGAUCCCCCUCUUCUUCUGAUCUUCCUUUCCAUCUGGAUACAACAGAGGAUUGAGCAUCA
B14: chr2:160605069:160605070:+_ENSG00000136536_ENST00000409591|hu_mus|FALSE|FALSE (ssRNA)
RNA: GGGAGUUCUACAGUCCGACGAUCAGCCCCAAGGGAGUCACCCUGUGCUUCAAGAUGAACUACUUCAUUUGAAUCUCUUCUGAAAAUAUGAGAUCUAGGUGGUACAUCUGACGUAGACAUUCUUGAAGACUCAUCCCUUCCCUCCAACAGAGGAUUGAGCAUCA
B15: chr14:66974463:66974464:+_ENSMUSG00000022044_ENSMUST00000074523|mus_hu|mus_mus_mus_hu_False|18_48 (ssRNA)
RNA: GGGAGUUCUACAGUCCGACGAUCUUGUAGGACGACUUAUUCAGGGGAUCGGCCAGGAAGCAGGAGCAGAACAAGGACACCAGCGGGAGUUCCUUCAUCUUCUCUUUGUAGGCAGCAAGAGUCAUGUUUCUGGGAUCUGGUGGCCAACAGAGGAUUGAGCAUCA
B16: 56575273_56575393_1438_CDS_ENSMUSG00000013236_ENSMUST00000086828|mouse|control|control (ssRNA)
RNA: GGGAGUUCUACAGUCCGACGAUCCAUGGUGGUGGCGCUGAGCAUGCGGGCCUGAACAUUCCUGGGAGCGCUGGCUGGUGCCUGCUCACCUGUGCGGGUCACCACCGAUUCACUGGGAGGGCCCUGGCCAAUGGAGUUGACAGCCAACAGAGGAUUGAGCAUCA
B17: chr3:148522152:148522153:-_ENSMUSG00000028184_ENSMUST00000106128|mus_mus|FALSE|FALSE (ssRNA)
RNA: GGGAGUUCUACAGUCCGACGAUCGGGUGACGUAUCGUGGUAGUUGGCAUAGUUGAUGAUAGCCUCGCCGCUCUUGAUUCUAGUCCUCAAGUCAAACUUAACAAUGUUUCUGGUUCUUUCCUUGUUAAAGAAGACGGCUCCAUCCAACAGAGGAUUGAGCAUCA
B18: chr22:19452774:19452775:-_ENSG00000070010_ENST00000399523|hu_hu|hu_hu_hu_mus_False|48_108 (ssRNA)
RNA: GGGAGUUCUACAGUCCGACGAUCCUUUUCAUUAUAGUUGAUAGCAAUCACAUCUCCAGUCGUCAGACAGGCGAAGUUUCUCAAUGCGUUUUCUAAUACCGCUUUAGGGUUGGUAAUAUCCAGGAAGUCUGGGCUCUGAGGCUGCAACAGAGGAUUGAGCAUCA
B19: chr5:33170631:33170632:-_ENSMUSG00000054280_ENSMUST00000120129|mus_hu|FALSE|FALSE (ssRNA)
RNA: GGGAGUUCUACAGUCCGACGAUCGGGAUGGCACGGUGUAGACAUCUGCUUUGGUAUGUGACUAACCAAGCUCUUGGUAGGUGCUGUUUCAGGUUCUAAUCGUGUAGGUGCAGACAGAGUACACAAACUGAGAAGUCUGUGCGCCAACAGAGGAUUGAGCAUCA
B20: chr1:244855233:244855234:+_ENSG00000121644_ENST00000302550|hu_mus|hu_hu_hu_mus_True|28_98 (ssRNA)
RNA: GGGAGUUCUACAGUCCGACGAUCCAUCAGAUGGUAGGCAUUGCCUUUAUACUCUUUCCCCAGUUCUUCUACAAUUUUCUCUAUAUCAUCUUCUAGAAAGUCCGUACUCCCUAAAACAACAGCUUCUUUAAAUUUAAAUGUUUCCAACAGAGGAUUGAGCAUCA
B21: chr6:82862619:82862620:-_ENSMUSG00000000627_ENSMUST00000000641|mus_mus|FALSE|FALSE (ssRNA)
RNA: GGGAGUUCUACAGUCCGACGAUCAACCUGCUUGUAAUUUCCUACACACUUUUCUGGGUUCCUUUUGUCAUCCCUCAAUAGCUAGAAUGUUGUGAAGUUCAUUUUAAAUGGAAGCCAAGGAAAGAGGGCUCAGCCUCCACUCCACAACAGAGGAUUGAGCAUCA
B22: chr2:49629323:49629324:+_ENSMUSG00000026764_ENSMUST00000028102|mus_hu|FALSE|FALSE (ssRNA)
RNA: GGGAGUUCUACAGUCCGACGAUCCAUUAUAUAUUUUAGUUCCCAGACAUAAAUCUUGAUAUCUCAAACAACAUUCUCCUAAUUUACCAAUCCACCAUCCUGCAGAUAAAGAUUAUUCAUAUAAACCAUCUGGCUGUUCUCUUACAACAGAGGAUUGAGCAUCA

Target: T1, UNK ZnF1-3
Assay: nsRBNS (natural sequence RNA bind-n-seq); RBNS binding buffer (assumed for nsRBNS): 25 mM Tris pH 7.5, 150 mM KCl, 3 mM MgCl2, 0.01% Triton X-100, 500 ug/ml BSA, 20 U/ml SUPERase-In, 4 C; UNK is unkempt and MSI1 is Musashi-1; names of the RNAs are library labels; protein concentration not given here; high values mean tight binding

Row | Binder | binding signal
1 | B1 | 0.486 enrichment R
2 | B2 | 1.07 enrichment R
3 | B3 | 1.64 enrichment R
4 | B4 | 1.46 enrichment R
5 | B5 | 0.878 enrichment R
6 | B6 | 0.754 enrichment R
7 | B7 | 0.727 enrichment R
8 | B8 | 0.714 enrichment R
9 | B9 | 1.11 enrichment R
10 | B10 | 2.91 enrichment R
11 | B11 | 1.12 enrichment R
12 | B12 | 1.47 enrichment R
13 | B13 | 0.881 enrichment R
14 | B14 | 1.23 enrichment R
15 | B15 | 2.67 enrichment R
16 | B16 | 0.716 enrichment R
17 | B17 | 0.568 enrichment R
18 | B18 | 0.683 enrichment R
19 | B19 | 0.839 enrichment R
20 | B20 | 1.51 enrichment R
21 | B21 | 0.841 enrichment R
22 | B22 | 1.27 enrichment R
